Laboratory results published in the supplement of paper PMC11417369.
Some of the results follow.

test system: PF3D7_0420300 AP2 domain 1 (GST-tagged); experiment: gcPBM binding intensity (ln(normalized median fluorescence intensity)); higher = stronger DNA binding
Procedure, shortened: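 An Agilent 4 × 180k array carrying primer-extended double-stranded 36-bp intergenic genomic probes and negative controls received GST-tagged P. falciparum DNA-binding domains expressed in E. coli, about 25 μg on average, for 1 h. The binding buffer contained 1× PBS, 1% milk, 0.2 mg/ml BSA, 0.5% salmon testes DNA and 0.03% Triton X-100. Binding intensity is the top Masliner-normalised natural-log median intensity across replicate spots of either probe orientation, read after Alexa488 anti-GST antibody staining and a 488 nm scan.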

Sequence | gcPBM binding intensity (ln)
CTATAAATGAATGTTTGTACTTAATAATAAAAGAAA [XGTACX_site3170] | 9.06
TATTTTTTTCATAACAGTACAATAATATATATTTTT [XGTACX_site5739] | 9.08
GCACACACAAAAAAAGCATGCATACTAGCTATTTTT [TGCATGCA_site18] | 9.35
AATCAAAAAAAATGTTGTACGCCTAATTATAATTAA [XGTACX_site8906] | 9.11
AAAAAACACCCATACACACACACACCGATATATATA [CACACA_site5808] | 10.2
TATTCGTGCAATAATAGTACACTTATAAATTATTCA [XGTACX_site8993] | 9.03
AATGAAATAAATAAGGGTACACATAAATATATATAT [XGTACX_site7006] | 9.72
TGTTGTAACAAAAGTACACACACATTTCTATAAATT [CACACA_site8894] | 9.51
ATTACATAACAATATACACACTATTGATTAAAGAGA [CACACA_site5602] | 9.56
TTTATTAGATAACGATAAACGAAAAAAAAAAAATAA [GTGCAC_negctrl_site81] | 9.18
ATAATATAAATAAAGCGTACTTAATTTTATATATAT [XGTACX_site4626] | 9.19
CATTATGTCATAAATGCACACATATATATATACATA [CACACA_site8454] | 9.34
TATTTAAAAGTATATACACACAACTGGAATGAAAAG [CACACA_site4126] | 9.75
TATGTATGCCCTAATGCATGTGAACAAAATAATATA [TGCATGCA_site407] | 9.15
ATTATAACACCTCCCCCCCTTTTTTTATGAAGACCA [CACACA_negctrl_site1043] | 10.4
TATTTTAATCGTAAGTGTACTCTTTTAAGTATATGT [XGTACX_site8591] | 9.2
AAAATTAAAAAAATAAATACATTATATAATTAAAAA [CACACA_negctrl_site1426] | 9.04
AACAGACATAGACACACACACATATATTTATTTATA [CACACA_site7571] | 9.83
TTTTTTAAATTTTGAATTATAACTACATTAAAGAAA [GTGCAC_negctrl_site279] | 8.63
ATGCAAATAATATAAAGTACACAACATCGCCCAAAG [XGTACX_site1825] | 9.66
TCACATACATTACTTACACACCATATTAATATATAC [CACACA_site8047] | 9.68
AATAAAAAATAAAAAATAAACAGTATACATATATAT [GTGCAC_negctrl_site31] | 9.59

Sequence | gcPBM binding intensity (ln)
TCATATTAATTTGATAGTACATATACTTTGAAGTCC [XGTACX_site3767] | 9.06
TGTATATAAACAAGGGGTACAATAATATAAATAAAT [XGTACX_site8675] | 9.6
TTTTTTTTTTTTTTTACACACTATAGGGAAAAAAAA [CACACA_site1916] | 8.81
AAAAATATAATATATCTAAAATTTTTCATTAAATAT [XGTACX_negctrl_site274] | 8.98
ACATATATATATTTATATATATATATATATATGTGA [CACACA_negctrl_site613] | 8.99
ATAAATAAAAATACATGAACAGGTCAGGTTATTTTT [CACACA_negctrl_site1007] | 9.3
TTATATATAGAATAAACATGCATTTGTATATGAATA [TGCATGCA_site604] | 9.21
TATTTTGCTCATCCATGTACACATAGATATATTTTA [XGTACX_site8244] | 9.3
TTCTTTTCAGAAGGAAAGAATTATAACATATCATAA [XGTACX_negctrl_site548] | 8.83
ATATTATGTGAAGAACGTACAAATTTTTACACTATA [XGTACX_site1485] | 9.3
TAAAAGAAATAAGGTGCACACATATACATATATATA [CACACA_site8037] | 9.55
TTTCTAAATGTTTATATATATATATATATATAAATA [GTGCAC_negctrl_site397] | 9.01
CTATAAATAACAGAAAGTACATATACATGGATATAT [XGTACX_site3317] | 9.52
AATATATCAAAAATTGGATAGTTTCTTATAAAAAAT [CACACA_negctrl_site39] | 9.11
TATTTTATAATTTACCGTACATTAATTGTATTATTA [XGTACX_site5722] | 9.33
ATATATTTTATATGTGTGCACTATATATATATATAT | 9.38
TCTTATTTTATAAATATAAATATATATATATATATA [GTGCAC_negctrl_site479] | 8.89
ATATATTTTAAAGAAAGTACCCACCGTTTGAAGTCA [XGTACX_site2273] | 9.42
TGTTATATATATTGACTTAATAAATAAATAAATATA [GTGCAC_negctrl_site590] | 8.92
ATTAATATATAACGTGCACACACACCGTTACGTATG [CACACA_site8543] | 9.87
TTACAAAACACTTATACACACATATAAATATAAATA [CACACA_site7307] | 9.61
CTCCTCATATAATTTTGTACATAAAAAATTACCATT [XGTACX_site3879] | 9.2

Sequence | gcPBM binding intensity (ln)
AGTATAAAAATAAGCACACACACAAATATATATTTA [CACACA_site923] | 10.2
TTTCTTCTGCATTATGCACACTATAATTCGTTAAAA [CACACA_site5568] | 9.27
TTTTCTTTTACAAAGGGTACATAATTTAAATTCATA [XGTACX_site3876] | 8.89
ATAATATAAATATTAACACACATCCTTTTATGTATA [CACACA_site6685] | 9.41
AAATAAGCATATACAAACATGCATACATATAAATAA [CACACA_negctrl_site246] | 9.38
AAAAAAAAAAAATCATGTACTTATTTTTCATTGTTG [XGTACX_site1542] | 9.08
CTTATATTAAAAACTTGTACACATGTTAAGAATTTT [XGTACX_site5857] | 9.07
TTTATATATTATACATGTACATATTTATTTATATAA [XGTACX_site3474] | 9.31
TATATGCACTTAATATGTACACAAAAAAAAAAAAAA [XGTACX_site6199] | 8.95
GTAAAAGTTAAAAAAACATGCAAAATTTAAAAAAAA [TGCATGCA_site637] | 9.17
ATACATATATATATTCTACACACTTATAATATAATA [CACACA_site8782] | 9.54
ACTATATTTGCCCTTTTAATCAGAACAAAAAAAAAA [CACACA_negctrl_site1051] | 8.93
ATTATATTCCAAGTTTGTACATATATATAAAAGTAT [XGTACX_site1631] | 9.16
TGAAATGATATATAAACACACATATATATATATATA [CACACA_site3511] | 9.11
ATTTTTAATGTGATCACACATAAATATTATATATAT [CACACA_site5641] | 9.27
GTATAAAAAAATATATGTACTTATTTACATATATAT [XGTACX_site4744] | 9.07
ATATTATAATTGAAGGTGCAAAATGTAATATAGATA [GTGCAC_site9661] | 9.4
ATTATTATTTAAAAAAGTACATTGAAGTTCATAATA [XGTACX_site3575] | 9.01
ATTCATTTTTTGGGGGGTACACCCTTTTAAACATTT [XGTACX_site4797] | 9.98
TATAAACATAAATATACACACAAACATATAGGTATT [CACACA_site6690] | 9.96
CTTGTATATAAACACACACACACTTTCTTTTTTTAA [CACACA_site8602] | 9.91
ATTAATCAATATAGGCGTACAAAAAAAATAAATTAT [XGTACX_site1513] | 9.44

Sequence | gcPBM binding intensity (ln)
CCCCTTAATTTATTTTGTACATATAATTTTTTTTTT [XGTACX_site3270] | 9.34
AAAAAAAAAAAAAAAAAAAAAAATATATATATATTT [GTGCAC_negctrl_site502] | 9.2
GTATTTTTAAATGACACACACATATATAAATATGTA [CACACA_site6880] | 9.51
ACAAAAATAAGCAAATGTACATATGTATAATATATT [XGTACX_site2492] | 9.52
CTGGAGTTAAAAATGTGTACCTAAAAAATTTTGTTC [XGTACX_site5554] | 9.14
ATTATTATATATAAAACACACAATTTTGTTTTCACA [CACACA_site3965] | 9.25
ACTATTTAAATGCAAAGTACTTTGATAATAAACAAT [XGTACX_site2608] | 9.34
TAATATAACAAAAAAATAAAATAAAATAAAAAATAA [CACACA_negctrl_site109] | 9.35
ATATAATAATATTAAAGTACATGCATATATATTTAT [XGTACX_site7422] | 9.32
ATTTTTTAAAAAAACATACACACAAAAAAAAAAAAA [CACACA_site3936] | 9.31
CATAATATCTCTTTGTGTACATATAGTTATTATTAT [XGTACX_site7688] | 9.37
AATGTGAAAAAAAAAAGTACAGACCTAATCAAAAAA [XGTACX_site2486] | 9.56
TTTTTTAAAAGATATATAATATGTATGAATATTCAA [XGTACX_negctrl_site380] | 8.85
AATATAAAAAAAGAGGAGGGATGGTATACTTGTGGT [CACACA_negctrl_site986] | 9.71
ATAGAAGGCAACTTGGTGCACAAAAAAAAAAATAAT | 9.5
AAAAAAAATACATACACACACACACCCACATATATA [CACACA_site3561] | 10.1
CGAACAAACAAATAAACACACAAAAAAAAATATATA [CACACA_site1825] | 9.61
ATACTTATGATAAATACACACTTGAAATTAAGGATT [CACACA_site4772] | 9.42
TTAAAGCTGACATATACACACATACATAAATTCATA [CACACA_site5377] | 9.57
TATACATATATTATATGTACATATATATATAATATA [XGTACX_site2942] | 9.06
GGACAAGTTTTTTACATAAATAAAAAAAATAAAAAA [XGTACX_negctrl_site125] | 8.93
